Test results taken from the supplement of paper PMC9174493.
Some of the results follow. Single values of this set are uncertain. Values with irradiation are relative to irradiated vehicle.

Legend:
A549-Dual [1] = test: NF-kB reporter (SEAP) activity, viability-corrected, relative to vehicle (fold change vs vehicle); higher = more activation of STING-IRF / NF-kB immune response reporter
A549-Dual [2] = test: ISRE reporter (Lucia luciferase) activity, viability-corrected, relative to vehicle (fold change vs vehicle); higher = more activation of STING-IRF / NF-kB immune response reporter
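For NF-kB reporter (SEAP) activity, viability-corrected, relative to vehicle in this document: viability correction based on the alamar blue assay, with concentrations leaving 10% survival or less dropped.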

| SMILES | NF-kB reporter (A549-Dual [1]; 0.1 µM, irradiation: 8 Gy/4 fr) | NF-kB reporter (A549-Dual [1]; 0.1 µM, irradiation: none) | NF-kB reporter (A549-Dual [1]; 0.3 µM, irradiation: 8 Gy/4 fr) | NF-kB reporter (A549-Dual [1]; 0.3 µM, irradiation: none) | NF-kB reporter (A549-Dual [1]; 1 µM, irradiation: 8 Gy/4 fr) | NF-kB reporter (A549-Dual [1]; 1 µM, irradiation: none) | NF-kB reporter (A549-Dual [1]; 3 µM, irradiation: 8 Gy/4 fr) | NF-kB reporter (A549-Dual [1]; 3 µM, irradiation: none) | NF-kB reporter (A549-Dual [1]; 10 µM, irradiation: 8 Gy/4 fr) | NF-kB reporter (A549-Dual [1]; 10 µM, irradiation: none) | ISRE reporter (A549-Dual [2]; 0.1 µM, irradiation: 8 Gy/4 fr) | ISRE reporter (A549-Dual [2]; 0.1 µM, irradiation: none) | ISRE reporter (A549-Dual [2]; 0.3 µM, irradiation: 8 Gy/4 fr) | ISRE reporter (A549-Dual [2]; 0.3 µM, irradiation: none) | ISRE reporter (A549-Dual [2]; 1 µM, irradiation: 8 Gy/4 fr) | ISRE reporter (A549-Dual [2]; 1 µM, irradiation: none) | ISRE reporter (A549-Dual [2]; 3 µM, irradiation: 8 Gy/4 fr) | ISRE reporter (A549-Dual [2]; 3 µM, irradiation: none) | ISRE reporter (A549-Dual [2]; 10 µM, irradiation: 8 Gy/4 fr) | ISRE reporter (A549-Dual [2]; 10 µM, irradiation: none) |
| --- | --- | --- | --- | --- | --- | --- | --- | --- | --- | --- | --- | --- | --- | --- | --- | --- | --- | --- | --- | --- |
| Cc1coc2c1C(=O)C(=O)c1c-2ccc2c(C)cccc12 [Tanshinone I] | 0.878 | 1.32 | 1.05 | 1.36 | 1.44 | 1.06 | 1.53 | 1.06 | 1.05 | 1.04 | 0.986 | 0.994 | 0.858 | 0.992 | 0.846 | 0.639 | 0.941 | 0.836 | 0.536 | 0.51 |
| CCC(c1ccc(O)cc1)C(CC)c1ccc(O)cc1 (stereo not given) [Hexestrol] | 0.982 | 0.911 | 0.888 | 0.919 | 0.967 | 0.95 | 0.821 | 1.01 | 1.14 | 0.968 | 1.01 | 1.02 | 0.921 | 1.05 | 1.03 | 0.947 | 1.02 | 1 | 1.12 | 1.04 |
| CCc1nc(C(N)=O)c(Nc2ccc(N3CCC(N4CCN(C)CC4)CC3)c(OC)c2)nc1NC1CCOCC1 [Gilteritinib (ASP2215)] | 1.06 | 1 | 0.869 | 1.03 | 0.963 | 1.4 | 1.08 | 1.24 | 1.06 | 0.933 | 1.11 | 0.876 | 0.678 | 1.04 | 0.867 | 1.03 | 0.436 | 1.16 | 0.413 | 1.21 |
| Cl.c1ccc(CN(CC2=NCCN2)c2ccccc2)cc1 [Antazoline HCl] | 0.993 | 0.816 | 0.9 | 0.758 | 0.924 | 0.898 | 1.2 | 0.939 | 1.02 | 0.961 | 0.798 | 0.769 | 0.827 | 0.62 | 0.796 | 0.777 | 0.974 | 0.912 | 1.07 | 1.14 |
| Cc1c(O)c(C)c2c(c1O)C(=O)CC(c1ccc(O)cc1)O2 (stereo not given) [Farrerol] | 0.948 | 0.8 | 0.889 | 0.743 | 0.924 | 0.8 | 1.1 | 0.816 | 0.769 | 0.967 | 0.922 | 0.778 | 0.813 | 0.662 | 0.698 | 0.753 | 0.787 | 0.78 | 0.659 | 0.85 |
| CC(=O)OC1(C(C)=O)CCC2C3CC(C)C4=CC(=O)C=CC4(C)C3(F)C(O)CC21C (stereo not given) [Fluorometholone Acetate] | 0.859 | 1.26 | 1.17 | 1.08 | 1.17 | 1.14 | 1.16 | 1.03 | 0.624 | 1.19 | 0.0679 | 0.254 | 0.0676 | 0.251 | 0.0848 | 0.268 | 0.0863 | 0.329 | 0.0836 | 0.337 |
| CONC(=O)Nc1ccc(-c2sc3c(c2CN(C)C)c(=O)n(-c2ccc(OC)nn2)c(=O)n3Cc2c(F)cccc2F)cc1 [Relugolix] | 0.958 | 0.994 | 0.949 | 0.953 | 0.893 | 1.2 | 0.92 | 0.956 | 0.954 | 0.969 | 0.974 | 1.01 | 1.24 | 1 | 0.998 | 0.929 | 1.11 | 0.733 | 0.939 | 1.11 |
| CC12CCC(CC1=O)C2(C)C (stereo not given) [Camphor] | 0.896 | 0.74 | 0.928 | 0.737 | 0.945 | 0.827 | 1.08 | 0.791 | 0.817 | 0.974 | 0.998 | 0.702 | 0.937 | 0.712 | 0.772 | 0.765 | 0.785 | 0.854 | 0.818 | 0.732 |
| CCCCOc1ccc(C(=O)CCN2CCCCC2)cc1.Cl [Dyclonine HCl] | 0.915 | 1.01 | 1.05 | 1.38 | 1.35 | 0.928 | 1.06 | 0.994 | 1.19 | 0.802 | 1.07 | 0.744 | 0.87 | 0.909 | 0.903 | 0.848 | 0.686 | 1.05 | 0.81 | 0.783 |
| COc1ccc(S(=O)(=O)N(C(C)=O)c2ccccc2/C=C/c2cc[n+]([O-])cc2)cc1 | 1.1 | 1.71 | 1.24 | 1.97 | 0.905 | 1.71 | 0.852 | 1.7 | 0.919 | 1.58 | 0.916 | 2.81 | 0.685 | 2.33 | 0.207 | 1.07 | 0.0815 | 0.601 | 0.0917 | 0.51 |
| COc1ccc(C2CNC(=O)C2)cc1OC1CCCC1 (stereo not given) [Rolipram] | 1.1 | 1.27 | 1.23 | 1.11 | 1.12 | 0.982 | 0.992 | 1.05 | 0.856 | 1.18 | 1.01 | 0.943 | 0.912 | 0.847 | 0.968 | 0.855 | 0.849 | 0.868 | 1.06 | 0.747 |
| CNC(=O)c1cc(Oc2ccc(NC(=O)Nc3ccc(Cl)c(C(F)(F)F)c3)cc2)ccn1.Cc1ccc(S(=O)(=O)O)cc1 [Sorafenib Tosylate] | 1.06 | 0.982 | 1.06 | 1.05 | 0.794 | 0.986 | 0.61 | 0.862 | 0.821 | 1.02 | 0.905 | 0.857 | 1.06 | 1.01 | 0.703 | 0.825 | 0.181 | 0.641 | 0.311 | 0.237 |
| Cl.Cl.O=C(O)COCCN1CCN(C(c2ccccc2)c2ccc(Cl)cc2)CC1 (stereo not given) [Cetirizine DiHCl] | 1.05 | 1.29 | 1.23 | 1.38 | 1.66 | 1.38 | 1.38 | 1.2 | 1.23 | 0.905 | 1.07 | 1.1 | 1.15 | 1.16 | 1.22 | 1.19 | 1.01 | 1.16 | 0.911 | 0.788 |
| O=C([O-])Cc1ccccc1Nc1c(Cl)cccc1Cl.[Na+] [Diclofenac Sodium] | 1.04 | 1.92 | 1.37 | 2.11 | 1.81 | 1.46 | 1.8 | 1.23 | 1.49 | 0.878 | 1.24 | 1.29 | 1.1 | 1.38 | 1.09 | 1.2 | 1.08 | 1.22 | 1.17 | 0.814 |
| O=c1ccc2ccc(O)c(O)c2o1 [Daphnetin] | 0.883 | 1.27 | 1.03 | 1.43 | 1.3 | 0.971 | 1.4 | 0.968 | 0.903 | 0.886 | 1.07 | 1.01 | 0.78 | 1.02 | 0.845 | 0.927 | 0.921 | 1.07 | 0.941 | 0.903 |
| C=C(NC(=O)C(=C)NC(=O)c1csc(C2=NC3c4csc(n4)C4NC(=O)c5csc(n5)C(C(C)(O)C(C)O)NC(=O)C5CSC(=N5)/C(=C/C)NC(=O)C(C(C)O)NC(=O)c5csc(n5)C3(CC2)NC(=O)C(C)NC(=O)C(=C)NC(=O)C(C)NC(=O)C(C(C)CC)NC2C=Cc3c(C(C)O)cc(nc3C2O)C(=O)OC4C)n1)C(N)=O (stereo not given) [Thiostrepton] | 1.04 | 1.06 | 0.933 | 1.12 | 0.972 | 1.35 | 0.9 | 1.2 | 0.865 | 1.12 | 0.948 | 1 | 0.972 | 1.01 | 0.99 | 0.931 | 0.66 | 0.771 | 0.606 | 1.11 |
| O=C(/C=C/C=C/c1ccc2c(c1)OCO2)N1CCCCC1 [Piperine] | 1.19 | 1.27 | 1.13 | 1.29 | 1.09 | 1.95 | 1.03 | 1.35 | 0.92 | 1.27 | 0.98 | 1.2 | 1.02 | 0.922 | 0.963 | 1.1 | 0.79 | 0.678 | 0.802 | 0.926 |
| COc1cc(C(=O)NS(=O)(=O)c2ccccc2C)ccc1Cc1cn(C)c2ccc(NC(=O)OC3CCCC3)cc12 [Zafirlukast] | 1.02 | 1.64 | 1.13 | 1.72 | 1.49 | 1.27 | 1.58 | 1.18 | 1.55 | 1.04 | 1.23 | 1.21 | 1.1 | 1.12 | 0.986 | 1.21 | 1.01 | 1.37 | 1.02 | 1.2 |
| Clc1ccc(C(c2ccccc2Cl)C(Cl)Cl)cc1 (stereo not given) [Mitotane] | 0.874 | 0.93 | 0.935 | 1.07 | 0.792 | 0.945 | 0.906 | 0.929 | 0.96 | 0.949 | 0.885 | 0.781 | 0.864 | 1.02 | 0.822 | 0.962 | 0.939 | 0.833 | 0.914 | 0.83 |
| CCC1(O)CC2CN(CCc3c([nH]c4ccccc34)C(C(=O)OC)(c3cc4c(cc3OC)N(C=O)C3C(O)(C(=O)OC)C(OC(C)=O)C5(CC)C=CCN6CCC43C65)C2)C1 (stereo not given) [Vincristine] | 1.06 | 2.06 | 0.732 | 2.32 | 1.02 | 2.55 | 0.73 | 1.99 | 0.751 | 1.92 | 0.257 | 1.19 | 0.0839 | 1.27 | 0.182 | 1.08 | 0.0863 | 0.744 | 0.0625 | 0.509 |
| CCCCC(=O)OC1(C(=O)CO)C(C)CC2C3CCC4=CC(=O)C=CC4(C)C3(F)C(O)CC21C (stereo not given) [Betamethasone Valerate] | 0.655 | 1.26 | 0.876 | 1.48 | 1.28 | 1.11 | 1.47 | 1.01 | 0.956 | 0.835 | 0.0671 | 0.314 | 0.0651 | 0.367 | 0.0599 | 0.328 | 0.0714 | 0.39 | 0.0682 | 0.335 |
| CC(=O)OC(C)OC(=O)C(C)c1ccc(-c2ccccc2)c(F)c1 (stereo not given) [Flurbiprofen Axetil] | 1.08 | 0.991 | 1.06 | 0.937 | 1.07 | 0.836 | 1.14 | 0.913 | 0.894 | 1.13 | 1.03 | 0.888 | 0.921 | 0.589 | 0.719 | 0.62 | 0.824 | 0.981 | 0.828 | 0.812 |
| COc1ccc(-c2cc(=S)ss2)cc1 [Anethole trithione] | 1.12 | 1.16 | 0.918 | 1.21 | 0.971 | 1.58 | 0.943 | 1.19 | 1.09 | 1.13 | 1.01 | 1.37 | 1.05 | 1.18 | 1.12 | 1.26 | 1.03 | 1 | 1.04 | 1.24 |
